Article PMC11995724, “Antibiotic target discovery by integrated phenotypic and activity-based profiling of electrophilic fragments” (Cell chemical biology, 2025)
The campaign covered roughly 3,200 compounds. About 110 (3.4%) showed an effect of 50% or more. This is one part of the list.

System: T1, V. cholerae SAD30
T1 construct: SAD30
Design: species or system S. aureus MSSA476 (TSB) or V. cholerae SAD30 (LB); 384-well bacterial growth screen at 25 uM, OD600 relative to DMSO control
Conditions: relative growth, OD600, LB; 25 µM; inhibitor

Compound	% of control remaining
N#CC(=Cc1cccc(O)c1)C(=O)NCc1ccco1 [9-F21, 2-cyano-N-[(furan-2-yl)methyl]-3-(3-hydroxyphenyl)prop-2-enamide]	89.395%
C=CC(=O)N1CCC(C(=O)NOC2CCCC2)(c2ccccc2)CC1 [3-K06, N-(cyclopentyloxy)-4-phenyl-1-(prop-2-enoyl)piperidine-4-carboxamide]	95.7949%
CC(Cl)C(=O)N1CCCC(NS(=O)(=O)c2cccc(F)c2)C1 (centres unmarked) [7-C13, N-[1-(2-chloropropanoyl)piperidin-3-yl]-3-fluorobenzene-1-sulfonamide]	76.9205%
NC(=O)Nc1ccc(C(=O)CCl)cc1 [10-J07, [4-(2-chloroacetyl)phenyl]urea]	65.4588%
C=CC(=O)N(C)Cc1cncn1C [2-D09, N-methyl-N-[(1-methyl-1H-imidazol-5-yl)methyl]prop-2-enamide]	93.747%
C=CC(=O)NC1(c2nccc(C(F)(F)F)n2)CC1 [2-D07, N-{1-[4-(trifluoromethyl)pyrimidin-2-yl]cyclopropyl}prop-2-enamide]	90.0415%
CC(C)Cn1c(N)c(C(=O)CCl)c(=O)n(C)c1=O [10-M12, 6-amino-5-(2-chloroacetyl)-3-methyl-1-(2-methylpropyl)-1,2,3,4-tetrahydropyrimidine-2,4-dione]	98.4999%
CC(NC(=O)C(C#N)=Cc1cccc(F)c1)c1ccccc1 (centres unmarked) [8-L18, 2-cyano-3-(3-fluorophenyl)-N-(1-phenylethyl)prop-2-enamide]	65.8736%
O=C(CCl)NCc1nn(-c2ccccc2)c2c1CCC2 [7-B06, 2-chloro-N-({1-phenyl-1H,4H,5H,6H-cyclopenta[c]pyrazol-3-yl}methyl)acetamide]	90.6658%
C=CC(=O)Nc1cc(NC(=O)C2CCC2)ccc1F [2-E10, N-[4-fluoro-3-(prop-2-enamido)phenyl]cyclobutanecarboxamide]	92.0486%
O=C(CCl)NCc1ccccc1Cn1cccn1 [5-P06, 2-chloro-N-({2-[(1H-pyrazol-1-yl)methyl]phenyl}methyl)acetamide]	110.287%
C=CC(=O)NCc1cc2cc(C)ccc2o1 [3-L14, N-[(5-methyl-1-benzofuran-2-yl)methyl]prop-2-enamide]	86.6201%
CC(Cl)C(=O)NCc1cc(C(F)F)nn1C (centres unmarked) [6-H14, 2-chloro-N-{[3-(difluoromethyl)-1-methyl-1H-pyrazol-5-yl]methyl}propanamide]	84.7853%
C=CC(=O)N1CCC(C(=O)NC2(CO)CCSCC2)CC1 [3-H07, N-[4-(hydroxymethyl)thian-4-yl]-1-(prop-2-enoyl)piperidine-4-carboxamide]	92.2661%
O=C(CCl)N1N=C(c2cccs2)CC1c1ccc(F)cc1 (centres unmarked) [4-O20, 2-chloro-1-[5-(4-fluorophenyl)-3-(thiophen-2-yl)-4,5-dihydro-1H-pyrazol-1-yl]ethan-1-one]	108.346%
COc1ccccc1N=Nc1ccc(NC(=O)CCl)cc1C [6-J06, 2-chloro-N-{4-[2-(2-methoxyphenyl)diazen-1-yl]-3-methylphenyl}acetamide]	88.1221%
C=CC(=O)N1CCOCC2(COCCN2C)C1 (centres unmarked) [3-J14, 1-{1-methyl-4,8-dioxa-1,11-diazaspiro[5.6]dodecan-11-yl}prop-2-en-1-one]	90.5017%
C=CC(=O)Nc1ncc(C2CCCC(C)C2)s1 (centres unmarked) [1-J16, N-[5-(3-methylcyclohexyl)-1,3-thiazol-2-yl]prop-2-enamide]	98.3808%
Cc1ccc(N2C(=O)C=CC2=O)c(C)c1 [10-N07, 1-(2,4-dimethylphenyl)-2,5-dihydro-1H-pyrrole-2,5-dione]	22.5989%
COCc1nc(C2CCCCCN2C(=O)CCl)no1 (centres unmarked) [5-B07, 2-chloro-1-{2-[5-(methoxymethyl)-1,2,4-oxadiazol-3-yl]azepan-1-yl}ethan-1-one]	100.2%
O=C(CCl)Nc1ccc(C(F)(F)F)cc1[N+](=O)[O-] [4-N08, 2-chloro-N-[2-nitro-4-(trifluoromethyl)phenyl]acetamide]	102.48%
O=C(CCl)NC1Cc2ccccc2N(C(=O)C(F)(F)F)C1 (centres unmarked) [7-L16, 2-chloro-N-[1-(2,2,2-trifluoroacetyl)-1,2,3,4-tetrahydroquinolin-3-yl]acetamide]	86.1721%
Cc1cc(C(=O)CCl)c(C)c(C)c1C [10-I06, 2-chloro-1-(2,3,4,5-tetramethylphenyl)ethan-1-one]	98.9675%
Cc1ccc(CC(=O)CCl)cc1 [10-O13, 1-chloro-3-(4-methylphenyl)propan-2-one]	100.058%
C=CC(=O)Nc1cn(C)nc1OC(C)C [1-F14, N-[1-methyl-3-(propan-2-yloxy)-1H-pyrazol-4-yl]prop-2-enamide]	112.365%
Cc1cc(C(=O)CCl)c(C)n1-c1ccc(S(N)(=O)=O)cc1 [10-N14, 4-[3-(2-chloroacetyl)-2,5-dimethyl-1H-pyrrol-1-yl]benzene-1-sulfonamide]	113.774%
N#CC(=Cc1ccc(Cl)c([N+](=O)[O-])c1)C(=O)NCc1ccco1 [9-E15, 3-(4-chloro-3-nitrophenyl)-2-cyano-N-[(furan-2-yl)methyl]prop-2-enamide]	84.7723%
CC(Cl)C(=O)Nc1ccc([N+](=O)[O-])cc1Cl (centres unmarked) [4-J17, 2-chloro-N-(2-chloro-4-nitrophenyl)propanamide]	100.927%
C=CC(=O)NC(Cc1ccccc1)c1ncco1 (centres unmarked) [1-B07, N-[1-(1,3-oxazol-2-yl)-2-phenylethyl]prop-2-enamide]	90.284%
